Experimental data as given in US20190263889A1 (ONCOC4, published 2019).

T1: human B7-1Fc fusion protein (human, UniProt P33681 35-242)
T1 construct: Used biotinylated in ELISA; also called B7-1 Ig; B7-1 Ig fusion protein
T1 sequence (looked up): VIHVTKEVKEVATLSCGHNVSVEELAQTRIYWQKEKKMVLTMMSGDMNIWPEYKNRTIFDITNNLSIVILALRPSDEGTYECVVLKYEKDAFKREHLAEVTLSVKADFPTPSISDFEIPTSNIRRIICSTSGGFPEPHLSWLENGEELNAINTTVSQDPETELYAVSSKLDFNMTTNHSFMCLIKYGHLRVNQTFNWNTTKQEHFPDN

T2: human B7-2Fc fusion protein (human, UniProt P42081 24-245, limits assumed)
T2 construct: Used biotinylated in ELISA; also called hB7-2Fc; CD86
T2 sequence (looked up): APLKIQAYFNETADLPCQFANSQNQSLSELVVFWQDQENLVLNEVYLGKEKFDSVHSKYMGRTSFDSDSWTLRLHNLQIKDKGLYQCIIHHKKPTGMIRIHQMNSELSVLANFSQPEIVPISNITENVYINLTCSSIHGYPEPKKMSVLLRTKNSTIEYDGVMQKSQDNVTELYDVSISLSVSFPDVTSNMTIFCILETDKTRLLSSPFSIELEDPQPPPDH


Columns and labels:
[1] = target: T1, human B7-1Fc fusion protein; assay: ELISA, summary grade
[2] = target: T2, human B7-2Fc fusion protein; assay: ELISA, summary grade

Row | Binder | binding result [1] | binding result [2]
1 | CTLA-4Fc mutant protein M17-3 (Fc fusion) MHVAQPAVVLASSRGIASFVCEYASPGKYTEVRVTVLRQADSQVTEVCAATYMMGNELTFLDDSICTGTSSGNQVNLTIQGLRAMDTGLYICKVELMYPPPYFDGIGNGTQIYVIDPEPCPDSDQ[sequence of human IgG1 Fc with changes not given] | binds | 
2 | CTLA-4Fc mutant protein M17-4 (Fc fusion) MHVAQPAVVLASSRGIASFVCEYASPGKYTEVRVTVLRQADSQVTEVCAATYMMGNELTFLDDSICTGTSSGNQVNLTIQGLRAMDTGLYICKVELMYPPPYFVGIGNGTQIYVIDPEPCPDSDQ[sequence of human IgG1 Fc with changes not given] | binds | binds
3 | CTLA-4Fc mutant protein M8 (Fc fusion, also called Mutant 8) MHVAQPAVVLASSRGIASFVCEYASPGKATEVRVTVLRQADSQVTEVCAATYMMGNELTFLDDSICTGTFNESRVNLTIQGLRAMDTGLYICKVELMYPPPYYLGIGNGTQIYVIDPEPCPDSDQ[sequence of human IgG1 Fc with changes not given] | binds | 
4 | CTLA-4Fc mutant protein M14 (Fc fusion) IQVTQPSVVLASSRGIASFVCEYASPGKATEVRVTVLRQADSQVTEVCAATFTEKNTVGFLDDSICTGTSSGNQVNLTIQGLRAMDTGLYICKVELMYPPPYFVGMGNGTQIYVIDPEPCPDSDQ[sequence of human IgG1 Fc with changes not given] | binds | 
5 | CTLA-4Fc mutant protein M17 (Fc fusion) MHVAQPAVVLASSRGIASFVCEYASPGKYTEVRVTVLRQADSQVTEVCAATYMMGNELTFLDDSICTGTSSGNQVNLTIQGLRAMDTGLYICKVELMYPPPYFEGMGNGTQIYVIDPEPCPDSDQ[sequence of human IgG1 Fc with changes not given] | binds | binds
6 | CTLA-4Fc mutant protein M10 (Fc fusion, also called Mutant 10) MHVAQPAVVLASSRGIASFVCEYASPGKATEVRVTVLRQADSQVTEVCAATYMMGNELTFLDDSICTGTSSGNQVNLTIQGLRAMMDTGLYLCKVELMYPPPYYLGIGNGTQIYVIDPEPCPDSDQ[sequence of human IgG1 Fc with changes not given] | no binding | 
7 | CTLA-4Fc mutant protein M12 (Fc fusion) IQVTQPSVVLASSRGIASFVCEYASPGKATEVRVTVLRQADSQVTEVCAATFTEKNTVGFLDDSICTGTFNESRVNLTIQGLRAMDTGLYICKVELMYPPPYFVGMGNGTQIYVIDPEPCPDSDQ[sequence of human IgG1 Fc with changes not given] | binds | 
8 | CTLA-4Fc mutant protein M3 (Fc fusion, also called Mutant 3) MHVAQPAVVLASSRGIASFVCEYASPSHNTDEVRVTVLRQADSQVTEVCAATYMMGNELTFLDDSICTGTSSGNQVNLTIQGLRAMDTGLYICKVELMYPPPYYLGIGNGTQIYVIDPEPCPDSDQ[sequence of human IgG1 Fc with changes not given] | binds | 

Now from value to binder:

Row | binding result [1] | binding result [2] | Binder
9 | binds |  | CTLA-4Fc mutant protein M1 (Fc fusion, mature protein with IgG1 Fc; also called Mutant 1) IQVTQPSVVLASSRGIASFVCEYASPGKATEVRVTVLRQADSQVTEVCAATYMMGNELTFLDDSICTGTSSGNQVNLTIQGLRAMDTGLYICKVELMYPPPYYLGIGNGTQIYVIDPEPCPDSDQ[sequence of human IgG1 Fc with changes not given]
10 | binds | binds | CTLA-4Fc mutant protein M17-2 (Fc fusion) MHVAQPAVVLASSRGIASFVCEYASPGKYTEVRVTVLRQADSQVTEVCAATYMMGNELTFLDDSICTGTSSGNQVNLTIQGLRAMDTGLYICKVELMYPPPYFEGIGNGTQIYVIDPEPCPDSDQ[sequence of human IgG1 Fc with changes not given]
11 | binds |  | CTLA-4Fc mutant protein M7 (Fc fusion, also called Mutant 7) MHVAQPAVVLASSRGIASFVCEYASPGKATEVRVTVLRQADSQVTEVCAATYMMGNELTFLDYPFCSGTSSGNQVNLTIQGLRAMDTGLYICKVELMYPPPYYLGIGNGTQIYVIDPEPCPDSDQ[sequence of human IgG1 Fc with changes not given]
12 | no binding |  | CTLA-4Fc mutant protein M9 (Fc fusion, also called Mutant 9) MHVAQPAVVLASSRGIASFVCEYASPGKATEVRVTVLRQADSQVTEVCAATYMMGNELTFLDDSICTGTSSGNQVNLTIQGLRAMVDTGLYICKVELMYPPPYYLGIGNGTQIYVIDPEPCPDSDQ[sequence of human IgG1 Fc with changes not given]
13 | binds |  | CTLA-4Fc mutant protein M5 (Fc fusion, also called Mutant 5) MHVAQPAVVLASSRGIASFVCEYASPGKATEVRVTVLRQADSQVTEVCAATFTEKNTVGFLDDSICTGTSSGNQVNLTIQGLRAMDTGLYICKVELMYPPPYYLGIGNGTQIYVIDPEPCPDSDQ[sequence of human IgG1 Fc with changes not given]
